Results from PubChem BioAssay AID686978 (National Center for Advancing Translational Sciences (NCATS), 2013).
About 64,000 (15%) of roughly 420,000 compounds were called active. The inconclusive results got no clear call from the source; some entries with a clear call stand among them for comparison. Calls follow the shape of the dose curve; as a rule, active = well fitted inhibition curve with a large enough effect; inconclusive = small, poorly fitted or top-dose-only effect; inactive = flat fitted curve, though single readings scatter. No potency is given beside an inconclusive call; the fits are too rough.

Assay: qHTS for Inhibitors of human tyrosyl-DNA phosphodiesterase 1 (TDP1): qHTS in cells in absence of CPT; also: nearly all actives have a fitted effect of over 55% in size
Conditions: DT40 Tdp1-/- hTDP1 cells, no CPT, ATP luminescence, 48 h; activity change, negative = growth inhibition: at 46.2 µM (top of the series) unless noted
Summary of the method: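 Camptothecin absent (DMSO only). Human TDP1-complemented DT40 knockout cells, 400 cells/well, 37 °C for minimum 48 hr; ATP measured via CellTiter-Glo, 30 min dark incubation, luminescence.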
% is scaled to controls: 0 for no effect and ±100 for the full control effect; potency is read from the fitted curve at half-maximal effect; tags tell the direction and shape of the fitted curve.

| SMILES | Potency | activity change, negative = growth inhibition |
| --- | --- | --- |
| CN(CCC1CCOCC1)C(=O)CC1C(=O)NCCN1Cc1ccccc1F (centres undefined) | inactive |  |
| COc1ccccc1NC(=O)CSc1nc(O)c(C/C=C/c2ccccc2)c(=O)[nH]1 | inactive |  |
| CSc1ccccc1C(=O)N1CCN(S(=O)(=O)c2sc(C(=O)O)c(C)c2C(=O)O)CC1 | inactive |  |
| CCCc1ccc(C(=O)[C@@H]2[C@@H](C(C)=O)N3c4ccc(F)cc4C=C[C@@H]3[C@@]23C(=O)Nc2ccccc23)cc1 | active: 18.4 µM |  |
| COc1ccc(CNC(=O)c2nc(SCc3ccc(C)cc3)ncc2Cl)cc1 | inconclusive [inhibitor, partial curve] |  |
| O=C1Nc2ccccc2SC(c2ccccc2)C1O (centres undefined) | inconclusive [inhibitor, partial curve] |  |
| CCn1c(C)nc2cc(S(=O)(=O)C(F)(F)F)ccc21 | active: 16.4 µM |  |
| COc1cccc(NC(=O)CN(C)C(=O)c2csc3c2CCCC3)c1 | inactive |  |
| CCOC(=O)N1CCC(N2C(=O)c3ccc(C(=O)NCc4ccc(F)cc4)cc3C2=O)CC1 | inactive |  |
| CCOC(=O)C(=CNc1cc(C)ccn1)C(=O)OCC | inconclusive [inhibitor, partial curve, poor fit] |  |
| Cc1ccccc1NC(=O)c1ccc(S(=O)(=O)C(F)F)cc1 |  | inconclusive: -38% [inhibitor] |
| CCOc1cccc2sc(N3CCN(C(=O)c4ccc5c(c4)CCCC5)CC3)nc12 | active: 13 µM |  |
| Cc1cccc(Nc2nnc(SCC(=O)NC(=O)Nc3ccc4c(c3)OCCO4)s2)c1 | inconclusive [inhibitor, single point] |  |
| COC(=O)c1ccc(NC(=O)CN2CCN(CCO)CC2)cc1 | inactive |  |
| COc1ccc(-c2cc(C(F)(F)F)n3nc(C(=O)N4CCN(C(=O)c5ccco5)CC4)cc3n2)cc1 | active: 20.6 µM |  |
| CCOP(=O)(OCC)C(NC(=O)Nc1cccc(Cl)c1)C(N)=O (centres undefined) | inactive |  |
| COc1ccccc1Nc1nc(C)cs1 | inactive |  |
| O=S(=O)(c1ccc(N2CCN(CCO)CC2)nc1)N1CCOCC1 | inactive |  |
| Cc1ccc(S(=O)(=O)NCc2cccnc2)cc1 | inactive |  |
| Cc1cccc(C(=O)NCC(c2ccc3c(c2)OCO3)N2CCOCC2)c1 (centres undefined) | active: 23.1 µM |  |
| Cc1ccc(-c2noc(CSc3nnc(-c4ccc(Cl)cc4)n3C)n2)cc1 | inconclusive [inhibitor, single point] |  |
| N=c1oc2ccc3ccccc3c2cc1-c1nc(-c2ccccc2)cs1 | inconclusive [inhibitor, single point] |  |
| O=C(c1ccco1)c1cn(CCOc2ccc(Cl)cc2)c2ccccc12 | inconclusive [inhibitor, partial curve] |  |
| CC(C)(C)NNC(=S)Nc1ccc(S(=O)(=O)N2CCOCC2)cc1 | inconclusive [inhibitor, partial curve] |  |
| CC(C)C(=O)Nc1ccc2c(c1)oc1ccccc12 | inconclusive [inhibitor, single point] |  |

| SMILES | Potency | activity change, negative = growth inhibition |
| --- | --- | --- |
| CCOC(=O)C(=O)NNc1ccc(F)cc1 | inactive |  |
| CCOC(=O)N1CCN(Cc2ccc3ccccc3c2)CC1 | inconclusive [inhibitor, single point] |  |
| COc1ccc(OCC(O)CN2CCc3ccccc3C2)cc1 (centres undefined) | inactive |  |
| CSc1ccccc1C(=O)NC1CCCc2ccccc21 (centres undefined) | inconclusive [inhibitor, single point] |  |
| c1ccc(C2=NNC(c3ccccn3)=NN2)nc1 | active: 9.2 µM |  |
| COc1ccc(C(CNC(=O)c2ccc(C)cc2)N2CCOCC2)cc1 (centres undefined) | inconclusive [inhibitor, single point] |  |
| O=C(c1cccs1)N1CCCc2cc(NS(=O)(=O)c3ccc(Cl)cc3)ccc21 | inconclusive [inhibitor, single point] |  |
| Cc1cccc(NC(=O)[C@H](NC(=O)[C@@H]2Cc3ccccc3CN2)c2ccccc2)c1 | inactive |  |
| Cc1ccc(C(=O)Nc2ccc(SC(F)F)cc2)s1 | inconclusive [inhibitor, single point] |  |
| Cc1ccc(OCC(=O)Nc2cc(C(=O)O)cc(C(=O)O)c2)cc1C | inconclusive [inhibitor, single point] |  |
| CCOC(=O)c1[nH]ncc1CN1CCc2ccc(NC(=O)C3CCCO3)cc2C1 (centres undefined) | inactive |  |
| CCOC(=O)N1CCC(NC(=O)CSCc2nc(-c3ccc(OCC)cc3)oc2C)CC1 | inconclusive [inhibitor, single point] |  |
| O=C(NC1CCCC1)C(c1ccccc1)N(C(=O)c1ccco1)C1CCCC1 (centres undefined) | inconclusive [inhibitor, single point] |  |
| CN(C)C(=O)c1cccc(-c2cnc3cccnn23)c1 | inconclusive [inhibitor, partial curve] |  |
| CCCN1CCN(CCCNC(=O)CCNC(=O)Cn2ccc3ccccc3c2=O)CC1 | inactive |  |
| CCOc1cc(/C=N\NC(=O)c2ccc(C)nc2)ccc1OC(=O)c1ccc(F)cc1 |  | inconclusive: -31.5% [inhibitor] |
| CC(C)C[C@H]1CN([C@@H](Cc2ccccc2)CN2CCC[C@H]2CN2C(=O)C(=O)NC[C@@H]2Cc2ccc(O)cc2)C(=O)C(=O)N1CCc1ccccc1 | inconclusive [inhibitor, partial curve, poor fit] |  |
| Cc1cccc(-c2csc(NC(=O)c3cnccn3)c2C(=O)OC(C)C)c1 | inactive |  |
| COc1ccccc1OCCNC(=O)c1ccccc1OCc1c(C)noc1C | inactive |  |
| O=C(Nc1ccc(F)cc1)c1nc(S(=O)(=O)Cc2ccccc2)ncc1Cl | active: 1.64 µM |  |
| O=C(CCn1nc(-c2ccc(Cl)cc2)ccc1=O)N1CCN(c2ccccc2)CC1 | inconclusive [inhibitor, single point] |  |
| O=C(Nc1cc(-c2ccccc2)[nH]n1)c1ccccc1 |  | inconclusive: -33.5% [inhibitor] |
| Fc1cccc(CSc2nnc3c(n2)[nH]c2ccccc23)c1 | inactive |  |
| COC(=O)[C@]12CCCCC=C1N(Cc1ccccc1)C(=O)[C@H](CC(=O)NCc1cccs1)C2 | inactive |  |
